Experimental data taken from the supplement of paper PMC8728848.
This is one part of the list.

Columns and labels:
Experiment in all cases: glycan array binding signal (z-score within array); higher = stronger binding
Details in all cases: glycan notation: IUPAC condensed, linker removed
Fuc(a1-2)Gal = biological target: Fuc(a1-2)Gal
In short: (§1)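 The binding signal is a Z-score computed within each array and averaged over linkers. Arrays of the same protein sequence at different concentrations or buffers were also averaged together. Data originate from 3228 arrays in the Consortium for Functional Glycomics database, kept only where the protein sequence was available.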

Fuc(a1-2)Gal(b1-3)GalNAc = biological target: Fuc(a1-2)Gal(b1-3)GalNAc
In short: as §1

[1] = biological target: Fuc(a1-2)Gal(b1-3)GalNAc(a1-3)[Fuc(a1-2)]Gal(b1-4)Glc
In short: as §1

[2] = biological target: Fuc(a1-2)Gal(b1-3)GalNAc(a1-3)[Fuc(a1-2)]Gal(b1-4)GlcNAc
In short: as §1

[3] = biological target: Fuc(a1-2)Gal(b1-3)GalNAc(b1-3)Gal
In short: as §1

[4] = biological target: Fuc(a1-2)Gal(b1-3)GalNAc(b1-3)Gal(a1-4)Gal(b1-4)Glc
In short: as §1

[5] = biological target: Fuc(a1-2)Gal(b1-3)GalNAc(b1-4)[Neu5Ac(a2-3)]Gal(b1-4)Glc
In short: as §1

Fuc(a1-2)Gal(b1-3)GlcNAc = biological target: Fuc(a1-2)Gal(b1-3)GlcNAc
In short: as §1

[6] = biological target: Fuc(a1-2)Gal(b1-3)GlcNAc(b1-2)Man(a1-3)[Fuc(a1-2)Gal(b1-3)GlcNAc(b1-2)Man(a1-6)]Man(b1-4)GlcNAc(b1-4)GlcNAc
In short: as §1

[7] = biological target: Fuc(a1-2)Gal(b1-3)GlcNAc(b1-2)Man(a1-3)[Fuc(a1-2)Gal(b1-3)GlcNAc(b1-2)Man(a1-6)]Man(b1-4)GlcNAc(b1-4)[Fuc(a1-6)]GlcNAc
In short: as §1

[8] = biological target: Fuc(a1-2)Gal(b1-3)GlcNAc(b1-3)Gal(b1-4)Glc
In short: as §1

[9] = biological target: Fuc(a1-2)Gal(b1-3)GlcNAc(b1-3)GalNAc
In short: as §1

[10] = biological target: Fuc(a1-2)Gal(b1-3)GlcNAc(b1-3)[Fuc(a1-3)[Gal(b1-4)]GlcNAc(b1-6)]Gal(b1-4)Glc
In short: as §1

[11] = biological target: Fuc(a1-2)Gal(b1-3)GlcNAc(b1-3)[Gal(b1-4)GlcNAc(b1-6)]Gal(b1-4)Glc
In short: as §1

[12] = biological target: Fuc(a1-2)Gal(b1-3)[Fuc(a1-4)]GlcNAc
In short: as §1

[13] = biological target: Fuc(a1-2)Gal(b1-3)[Fuc(a1-4)]GlcNAc(b1-2)Man(a1-3)[Fuc(a1-2)Gal(b1-3)[Fuc(a1-4)]GlcNAc(b1-2)Man(a1-6)]Man(b1-4)GlcNAc(b1-4)GlcNAc
In short: as §1

[14] = biological target: Fuc(a1-2)Gal(b1-3)[Fuc(a1-4)]GlcNAc(b1-3)[Fuc(a1-3)[Gal(b1-4)]GlcNAc(b1-6)]Gal(b1-4)Glc
In short: as §1

[15] = biological target: Fuc(a1-2)Gal(b1-3)[Fuc(a1-4)]GlcNAc(b1-3)[Gal(b1-4)GlcNAc(b1-6)]Gal(b1-4)Glc
In short: as §1

Fuc(a1-2)Gal(b1-4)Glc = biological target: Fuc(a1-2)Gal(b1-4)Glc
In short: as §1

Fuc(a1-2)Gal(b1-4)Glc6S = biological target: Fuc(a1-2)Gal(b1-4)Glc6S
In short: as §1

Fuc(a1-2)Gal(b1-4)GlcNAc = biological target: Fuc(a1-2)Gal(b1-4)GlcNAc
In short: as §1

[16] = biological target: Fuc(a1-2)Gal(b1-4)GlcNAc(b1-2)Man(a1-3)[Fuc(a1-2)Gal(b1-4)GlcNAc(b1-2)Man(a1-6)]Man(b1-4)GlcNAc(b1-4)GlcNAc
In short: as §1

[17] = biological target: Fuc(a1-2)Gal(b1-4)GlcNAc(b1-2)Man(a1-3)[Fuc(a1-2)Gal(b1-4)GlcNAc(b1-2)Man(a1-6)]Man(b1-4)GlcNAc(b1-4)[Fuc(a1-6)]GlcNAc
In short: as §1

[18] = biological target: Fuc(a1-2)Gal(b1-4)GlcNAc(b1-2)[Fuc(a1-2)Gal(b1-4)GlcNAc(b1-4)]Man(a1-3)[Fuc(a1-2)Gal(b1-4)GlcNAc(b1-2)Man(a1-6)]Man(b1-4)GlcNAc(b1-4)GlcNAc
In short: as §1

[19] = biological target: Fuc(a1-2)Gal(b1-4)GlcNAc(b1-3)Gal(b1-4)GlcNAc
In short: as §1

[20] = biological target: Fuc(a1-2)Gal(b1-4)GlcNAc(b1-3)Gal(b1-4)GlcNAc(b1-3)Gal(b1-4)GlcNAc
In short: as §1

[21] = biological target: Fuc(a1-2)Gal(b1-4)GlcNAc(b1-3)GalNAc
In short: as §1

[22] = biological target: Fuc(a1-2)Gal(b1-4)GlcNAc6S
In short: as §1

[23] = biological target: Fuc(a1-2)Gal(b1-4)[Fuc(a1-3)]GlcNAc
In short: as §1

[24] = biological target: Fuc(a1-2)Gal(b1-4)[Fuc(a1-3)]GlcNAc(b1-2)Man(a1-3)[Fuc(a1-2)Gal(b1-4)[Fuc(a1-3)]GlcNAc(b1-2)Man(a1-6)]Man(b1-4)GlcNAc(b1-4)GlcNAc
In short: as §1

B1: Tap1 (Sordaria macrospora), Q50IV4 (protein)
chain: MSHHHHHHHHYTLHLRLINDTSDTLTLVEQTSWWGKNTIWSQVRSTGVHVLSMAASGSSGMLRFQTSKGDFFAVAVGVHNYKRWCDVLVDTADEAPLTKLHPKYYDDKDAKYQALWAQASEFEAKSKSGKTVRIKFYQADGNVLRATVEYL
Fuc(a1-2)Gal
  glycan array binding signal (z-score): -0.239
Fuc(a1-2)Gal(b1-3)GalNAc
  glycan array binding signal (z-score): 2.96
[1]
  glycan array binding signal (z-score): -0.201
[2]
  glycan array binding signal (z-score): -0.05
[3]
  glycan array binding signal (z-score): -0.225
[4]
  glycan array binding signal (z-score): -0.242
[5]
  glycan array binding signal (z-score): -0.238
Fuc(a1-2)Gal(b1-3)GlcNAc
  glycan array binding signal (z-score): -0.217
[6]
  glycan array binding signal (z-score): -0.216
[7]
  glycan array binding signal (z-score): -0.214
[8]
  glycan array binding signal (z-score): -0.228
[9]
  glycan array binding signal (z-score): -0.226
[10]
  glycan array binding signal (z-score): -0.237
[11]
  glycan array binding signal (z-score): -0.239
[12]
  glycan array binding signal (z-score): -0.245
[13]
  glycan array binding signal (z-score): -0.135
[14]
  glycan array binding signal (z-score): -0.253
[15]
  glycan array binding signal (z-score): -0.228
Fuc(a1-2)Gal(b1-4)Glc
  glycan array binding signal (z-score): -0.197
Fuc(a1-2)Gal(b1-4)Glc6S
  glycan array binding signal (z-score): -0.216
Fuc(a1-2)Gal(b1-4)GlcNAc
  glycan array binding signal (z-score): -0.234
[16]
  glycan array binding signal (z-score): -0.207
[17]
  glycan array binding signal (z-score): -0.24
[18]
  glycan array binding signal (z-score): -0.23
[19]
  glycan array binding signal (z-score): -0.245
[20]
  glycan array binding signal (z-score): -0.223
[21]
  glycan array binding signal (z-score): 0.239
[22]
  glycan array binding signal (z-score): -0.228
[23]
  glycan array binding signal (z-score): -0.237
[24]
  glycan array binding signal (z-score): -0.035
